# According to PubChem BioAssay AID493208 (National Center for Advancing Translational Sciences (NCATS), 2011):
# Screen size: about 44,000 compounds; about 340 (0.77%) were called active. Roughly 5% stayed inconclusive and do not appear here. Calls come from the whole dose curve; as a rule, active = well fitted inhibition curve with a large enough effect; inconclusive = small, poorly fitted or top-dose-only effect; inactive = flat fitted curve, though single readings scatter. The list shows a part of the results.
# Assay: Acumen qHTS Assay for Inhibitors of the mTORC1 Signaling Pathway in MEF (Tsc2-/-, p53-/-) Cells: Sytravon; note: nearly all actives have a fitted effect of over 50% in size;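 for activity change, negative = inhibition: plate controls were DMSO for no effect and rapamycin for full effect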
# Conditions: phospho-rpS6 immunofluorescence/PI, 24 h; series mostly up to 38.3 µM; activity change, negative = inhibition: at the top concentration
# Procedure, shortened: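 Tsc2-/-, p53-/- MEFs (empty-vector stable line) in DMEM + 10% FBS were treated with compounds 24 h at 37 degree Celsius, fixed, and immunostained for phospho-rpS6 (Alexa-488) with propidium iodide counterstain. Laser-scanning cytometry gave % positive cells, normalized against 7.5 nM rapamycin and DMSO.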
# Potency is the fitted concentration of half-maximal effect.
Compound,"activity change, negative = inhibition",Potency
COc1ccc(-c2nc(C)c(CCNC(=O)C(=O)Nc3cc(C)cc(C)c3)s2)cc1OC,inactive: -0.717%,–
COc1ccc(-c2nc(SCc3cc(=O)c4cc(C)ccc4[nH]3)n[nH]2)cc1,inactive: -1.64%,–
CC(=O)N1c2ccc(S(=O)(=O)NCC3CCC(C(=O)Nc4cccc(C)c4C)CC3)cc2CC1C (stereo not given),inactive: -18.8%,–
CCOCCCNC(=O)C(c1ccc(OC)cc1)N(Cc1ccc2c(c1)OCO2)C(=O)c1ccccc1O (stereo not given),inactive: -14.5%,–
Cc1ccc(NC(=O)Cn2nc(C)n3cccc3c2=O)c(C)c1,inactive: -2.74%,–
COc1ccc(N2CC(C(=O)NCc3nnnn3-c3ccc(C)c(C)c3)CC2=O)cc1 (stereo not given),inactive: 2.93%,–
COc1ccccc1NC(=O)Cn1c(=O)c(CNc2ccc(C)cc2)cc2cc3c(cc21)OCCO3,inactive: -10.6%,–
Cc1cccc(N2C(=O)CSC23C(=O)N(CC(=O)NCc2ccccc2Cl)c2ccccc23)c1 (stereo not given),inactive: -0.371%,–
COc1ccc(CCNC(=O)C(=O)NCC(c2ccco2)S(=O)(=O)c2ccccc2)cc1 (stereo not given),inactive: -8.46%,–
O=C(Cn1c(SCCOc2ccc(Cl)cc2)nc2ccccc21)N1CCCCC1,inactive: -0.854%,–
COc1ccc(-c2nnc3n2N(C(C)=O)C(c2ccc(Cl)c(Cl)c2)=C(C(C)=O)S3)cc1,inactive: -0.985%,–
COc1ccc2cc3cc(C(=O)N4CCN(c5ccccc5F)CC4)oc3nc2c1,inactive: 1.11%,–
O=c1[nH]c(=O)n(C2CCCCC2)c(O)c1C1=Nc2ccccc2SC(c2ccc(Cl)cc2)C1 (stereo not given),inactive: -1.29%,–
CCCOc1ccc(C2CC(=O)Nc3c2c(C)nn3-c2nncc(-c3cccc(OC)c3)n2)cc1OC (stereo not given),inactive: -2.87%,–
Cc1ccc(NC(=O)Nc2sc3nc4n(c(=O)c3c2C)CCC(C)CC4)c(Cl)c1 (stereo not given),inactive: -5.01%,–
Cc1cccc(NC(=O)c2ccc3c(c2)CCN3S(=O)(=O)c2ccccc2)c1C,inactive: -4.06%,–
COc1cccc(OC)c1C(=O)Nc1nc2c(s1)CCc1ccccc1-2,inactive: 8.24%,–
Cc1nc2c(c(C)c1CCC(=O)NCc1ccc(Cl)cc1)c(=O)n(C)c(=O)n2C,inactive: -12.8%,–
CC(CNC(=O)CN1C(=O)c2cccnc2Oc2ccc(Cl)cc21)c1ccccc1 (stereo not given),inactive: -7.49%,–
COc1ccc(-c2noc(-c3ccc(N4CCN(c5ccccc5)CC4)c([N+](=O)[O-])c3)n2)cc1,inactive: 2.26%,–
COC(=O)c1ccc(NC(=O)N2CCN(Cc3cc(=O)n4nc(-c5ccc(C)cc5)sc4n3)CC2)cc1,inactive: 4.05%,–
Cc1ccc(/C=C/c2onc(C)c2S(=O)(=O)N2CCC(C(=O)N3CCN(c4ccccc4F)CC3)CC2)cc1,inactive: -4.4%,–
O=C(NCc1nc2ccccc2[nH]1)c1c(F)cccc1F,inactive: 0.544%,–
Cc1cccc(-n2c(C)nc3cc(C(=O)NCCC4=CCCCC4)ccc32)c1,inactive: -0.39%,–

Compound,"activity change, negative = inhibition",Potency
COc1ccc(NC(=O)CCNS(=O)(=O)c2cccc3nsnc23)cc1Cl,inactive: -6.29%,–
CCn1c(=O)cc(OCC(=O)N2CCN(c3ccc(OC)cc3)CC2)c2ccccc21,inactive: -6.9%,–
CCCS(=O)(=O)N1CC(=O)N(c2ccc(C)cc2)C(C)(C(=O)NC2CCCCCC2)C1 (stereo not given),inactive: 1.88%,–
CCOc1ccccc1CN1CCc2nc(Nc3ccc4c(c3)OCCO4)ncc2C1,inactive: -0.0208%,–
COc1ccc(CCNC(=O)c2cc3sccc3n2Cc2ccc(Cl)cc2)cc1OC,inactive: 9.27%,–
Cc1oc2ncn(CC(C)C)c(=O)c2c1C(=O)NC(C)c1ccccc1 (stereo not given),inactive: -2.12%,–
CCOc1ccc(NC(=O)Cn2c(=O)c(CNc3ccc(CC)cc3)cc3cc4c(cc32)OCO4)cc1,inactive: -0.224%,–
Cc1ccc(CNc2ncnc3onc(-c4ccc(F)cc4)c23)cc1,inactive: 1.34%,–
Cc1cc(C)c2nc(NC(=O)c3ccc(S(=O)(=O)N4CCc5ccccc54)cc3)sc2c1,inactive: -0.71%,–
Cc1cccc(-n2ccnc2SCC(=O)Nc2cccc3ccccc23)c1C,inactive: 0.889%,–
CCOc1ccc(Nc2nnc(-n3nc(C)cc3C)c3ccccc23)cc1,inactive: -1.36%,–
COc1ccc(C(=O)Nc2ccc3c(c2)CCCN3C(=O)c2cccs2)c(OC)c1,inactive: 10.2%,–
COc1cc(OC)c(NC(=O)N2CCCn3nc(C)cc32)cc1Cl,inactive: -22.1%,–
COCCn1c(C)cc(O)c(C(c2ccccc2)N2CCN(c3ccccc3)CC2)c1=O (stereo not given),inactive: -0.121%,–
COc1ccc(-c2nnc(SCC(=O)NC3CCCCC3)nc2-c2ccc(OC)cc2)cc1,inactive: -3.92%,–
O=C(Cn1c(=O)n(Cc2ccc3c(c2)OCO3)c(=O)c2oc3ccccc3c21)Nc1ccccc1F,inactive: -2.59%,–
CCCCSc1nnc2c(n1)OC(C)N(C(C)=O)c1ccccc1-2 (stereo not given),inactive: -1.87%,–
CCc1ccccc1NC(=O)CC1Sc2ccc(C(F)(F)F)cc2NC1=O (stereo not given),inactive: 0.284%,–
COc1ccc(CCNC(=O)C2COc3ccccc3C2)cc1OC (stereo not given),inactive: 2.73%,–
COc1ccc(CCNC(=O)Cc2c(C)c3cc4c(C)coc4c(C)c3oc2=O)cc1,inactive: -9.18%,–
Cn1c(Oc2ccc(Cl)cc2)nc2c1c(=O)n(Cc1ccc(F)cc1)c(=O)n2C,inactive: 6.38%,–
O=C(NCCc1ccccc1)c1ccc2c(c1)N(Cc1ccc(F)cc1)C(=O)c1ccccc1S2,inactive: -4.75%,–
COc1ccc(C(=O)NC(c2ccc(Cl)cc2)c2cc(Cl)c3cccnc3c2O)cc1 (stereo not given),inactive: 1.71%,–
CCCCN(CC)C(=O)c1cc2c(=O)n3cccc(C)c3nc2s1,inactive: -10.6%,–

Compound,"activity change, negative = inhibition",Potency
Cc1cc(C)cc(NC(=O)CCC(=O)N2CCSc3ccccc32)c1,inactive: 0%,–
COc1cc(Cl)c(C)cc1NC(=O)c1cnc(N2CCOCC2)c2ccccc12,inactive: -11.5%,–
Cc1ccc(Nc2ccc(N3CCN(C(=O)c4ccc([N+](=O)[O-])cc4)CC3)nn2)cc1,inactive: -1.2%,–
Cc1cccn2c(=O)c3cc(C(=O)Nc4ccc(Cl)c(Cl)c4)sc3nc12,inactive: 4.57%,–
Cn1c(SCc2ccc(Br)cc2)nc2c([nH]c3ccccc32)c1=O,inactive: -4.05%,–
Cc1ccc(S(=O)(=O)NCCc2csc(-c3cccc(F)c3)n2)cc1,inactive: -3.4%,–
CCOC(=O)c1cccc(NS(=O)(=O)c2cc3c(cc2C)NC(=O)CO3)c1,inactive: 2.24%,–
Cc1ccc(NC(=O)CN2C(=O)CC(C)Sc3ccccc32)c(C)c1 (stereo not given),inactive: -3.85%,–
Cc1nc2ccn(Cc3ccco3)c(=O)c2cc1C(=O)NCc1ccc(F)cc1,inactive: -14.8%,–
Cc1oc2ccc(O)c(CN3CCOCC3)c2c1C(=O)Nc1cccc(Cl)c1C,inactive: 7.39%,–
CCNC(=O)Cn1nc(C)n2c(cc3c(OC)cccc32)c1=O,inactive: 0.594%,–
Cc1c(Cl)cccc1-n1ncc(C(=O)N2CCOCC2)c1C1CCN(C(=O)OC(C)(C)C)CC1,inactive: -8.92%,–
Cc1cc(C)n(C(C)CC(=O)NCc2ccc(Cl)cc2)n1 (stereo not given),inactive: 5.63%,–
Cc1ccc(OCCCSc2nc(-c3ccc(C(C)(C)C)cc3)nc3cc(=O)[nH]n23)cc1C,inactive: -1%,–
Cc1ccc(OCC(=O)OCc2cc(=O)n3nc(C4CC4)sc3n2)cc1,inactive: 1.38%,–
COCCCNC(=O)C1CCN(c2cc(C)nc3c(-c4ccc(Cl)cc4)c(C)nn23)CC1,inactive: -4.21%,–
CCOC(=O)Cn1c(=O)n(-c2ccccc2OC)c2nc(-c3ccc(C(C)C)cc3)nc(C(N)=O)c21,inactive: 3.62%,–
COc1ccc(C(=O)NCCn2cc(SCC(=O)Nc3ccc4c(c3)OCCO4)c3ccccc32)cc1OC,inactive: -13.2%,–
CC(C)CC1Nc2ccc(C(=O)NCCCOC(C)C)cc2NC1=O (stereo not given),inactive: -14.9%,–
CCc1nn2c(=O)cc(COC(=O)C(CC)c3ccccc3)nc2s1 (stereo not given),inactive: 1.34%,–
CCOC(=O)c1c(Oc2ccc(C(C)=O)cc2)nnc(-c2ccccc2)c1-c1ccccc1,inactive: -4.63%,–
CCCNC(=O)CSc1nc(-c2ccc(OC)cc2)cc(C(F)(F)F)n1,inactive: -0.342%,–
O=C(CC1N=C2c3ccccc3N=C(SCC(=O)Nc3ccc(F)cc3)N2C1=O)NCc1cccs1 (stereo not given),inactive: 0.357%,–
COc1ccc2c(CNCc3cccs3)c(C(=O)O)n(Cc3ccccc3F)c2c1,inactive: 5.05%,–

Compound,"activity change, negative = inhibition",Potency
O=C(NCc1ccccc1)c1ccc2oc(=O)n(Cc3ccccc3)c2c1,inactive: 0%,–
COc1ccc(CC(=O)N2CCc3cc(OC)c(OC)cc3C2COc2ccc(F)cc2)cc1OC (stereo not given),inactive: 1.14%,–
CN(C)c1ccc(NC(=O)CSC2=Nc3ccccc3C3=NC(CCC(=O)NCc4cccs4)C(=O)N23)cc1 (stereo not given),inactive: -4.21%,–
Cn1c(SCC(=O)Nc2nc3ccccc3s2)ncc(C(=O)Nc2ccc(F)cc2)c1=O,inactive: -0.458%,–
COc1cccc(C(=O)Nc2cccc(C(=O)OCc3cc(=O)n4c(C)csc4n3)c2)c1,inactive: 12.9%,–
NS(=O)(=O)c1ccc2nc(NC(=O)COc3ccc(Cl)cc3Cl)sc2c1,inactive: 9.65%,–
Cc1c(C(=O)NC(C)c2ccccc2)sc2nc3n(c(=O)c12)CCCC3 (stereo not given),inactive: 7.01%,–
CCOC(=O)COc1ccc(C)cc1C(=O)c1ccn2nc(-c3ccc(F)cc3)cc2n1,inactive: -1.9%,–
CC1CCN(C(=O)c2cccc(NC(=O)c3nsc4ccccc34)c2)CC1,inactive: 5.08%,–
Cc1nc2scc(C)n2c(=O)c1S(=O)(=O)Nc1cccc(C(F)(F)F)c1,inactive: -23%,–
CCOc1ccc(-n2nc3ccc(NC(=O)c4ccc(-c5cccc(Cl)c5)o4)cc3n2)cc1,–,active: 11.7 µM
CN1CCc2nc3sc(C(=O)Nc4ccccc4C(F)(F)F)c(N)c3cc2C1,inactive: -7.89%,–
COc1ccccc1Cc1nc2ccccc2nc1SCC(=O)NCc1ccccc1Cl,inactive: -20.7%,–
CC1=C(C(=O)OC2CCCCCC2)C(c2cccc(Cl)c2)CC(=O)N1 (stereo not given),inactive: -21.4%,–
CCCC1=Nc2cc(C(=O)N3CCC(C)CC3)ccc2Sc2ccc(C)cc21,inactive: -9.51%,–
Cc1ccc2c(=O)c(C(=O)c3cccc(Cl)c3)cn(CC(=O)Nc3ccccc3C(F)(F)F)c2n1,inactive: 3.3%,–
COc1ccccc1C(=O)OCc1cc(=O)n2nc(C(C)C)sc2n1,inactive: 0%,–
CC1=Nc2cc(C(=O)NCCc3ccc(Cl)cc3)ccc2Sc2c(C)ccc(C)c21,inactive: -11.2%,–
CCOC(=O)CC(=O)CSc1nc2ccccc2c(=O)n1CCc1ccc(S(N)(=O)=O)cc1,inactive: 0.0373%,–
CC1CCCCN1CCCNC(=O)c1cc(Sc2ccc(Cl)cc2)nc2ccccc12 (stereo not given),inactive: -18.5%,–
COc1ccccc1CNC(=O)c1oc2ccc3c(c2c1C)C(=O)CC(C)(C)O3,inactive: -3.26%,–
COc1ccc(-c2noc(-c3ccc(NCC4CCCO4)c([N+](=O)[O-])c3)n2)cc1OC (stereo not given),inactive: 5.66%,–
CC(=O)Nc1ccc(NC(=O)CCS(=O)(=O)c2ccc3c(c2)CC(=O)N3C)cc1,inactive: -0.14%,–
